Assay results taken from PubChem BioAssay AID588855 (National Center for Advancing Translational Sciences (NCATS), 2011).
About 5,000 (1.2%) of roughly 410,000 compounds were called active. The inconclusive results got no clear call from the source; some entries with a clear call stand among them for comparison. The call rests on the fitted dose curve; in most records, active means well fitted inhibition curve with a large enough effect; inconclusive means small, poorly fitted or top-dose-only effect; inactive means no such curve, though single readings can be large or run the other way. A potency beside an inconclusive call is a rough fit, not a confirmed value.

Assay: qHTS for Inhibitors of TGF-b; further: nearly all actives have a fitted effect of over 65% in size
Conditions: HepG2 CAGA-GFP TGF-b/SMAD3 reporter, GFP fluorescence, 18 h, TGF-beta stimulated, 500 pg/mL final; series mostly up to 46.1 µM; activity, negative = inhibition: at the top concentration
Source text: TGF-b is a main component in the TGF-b signaling pathway which plays diverse roles in cellular and development pathways. TGF-b is the mediated by the transcription factors Smads. Although the Smad-dependent pathway is the primary canonical TGF-b signaling node, TGF-b1 can also activate alternative signaling pathways, including those involving MAPK (ERK, JNK and p38). This interaction may mediate or enhance Smad-dependent responses, or can exert Smad-independent effects. The complexity of this signaling cascade allows the TGF-b superfamily to perform unique, overlapping or redundant functions. We believe that targeting the TGF-beta pathway at the Smad-transcription factor level may eliminate the consequences of disrupting the entire pathway and offer specificity without affecting other signaling pathways. Smad3 is the primary transducer of TGF-b's signals and Smad3 regulates many functions attributed to TGF-b signaling. We hypothesize that Smad3 inhibitors will selectively eliminate Smad3-specific TGF-beta signals without undesired off-target effects. We aim to identify Smad3-small molecule antagonists using a quantitative high throughput screening (qHTS) approach.
A high-throughput assay was developed to screen the NIH Molecular Libraries Small Molecule Repository (MLSMR). This is a cell based assay, where TGF-b is tagged with GFP. A counterscreen is run that looks at cytotoxicity (please see summary AID).
MH087449NIH Chemical Genomics Center [NCGC]
NIH Molecular Libraries Probe Centers Network [MLPCN]
Assay Submitter (PI): Sushil Rane, National Institute of […]
Suspensions of trypsinized HEPG2 CAGA-GFP cells were dispensed into white, tissue culture-treated, solid 1536-well plates at 5uL/well (1000 cells/well final concentration) in DMEM medium supplemented with 1% FBS. Plates were incubated at 37 degrees C for 2 hours, after which 23 nL of compounds or DMSO were delivered to each well using a pin tool. One uL of recombinant TGF-beta in DMEM (1% FBS) was then dispensed (500 pg/mL final concentration), and plates were incubated at 37 degrees C for 18 hours. The plates were measured on an Acumen eX3 Explorer plate reader for GFP fluorescence (ex488/em500-530). GFP values were calculated by determining the mean GFP fluorescence of individual cells, and compiling these values for each well to determine a total well GFP signal. The %Activity was determined from the corrected fluorescence values. A titration of the known TGF-B inhibitor SB431542 was included to monitor plate performance, while unstimulated HEPG2 (-TGF-B) control wells were used to normalize %Activity of identified inhibitors; unstimulated wells corresponded to 100%Activity (full inhibition), while stimulated cell controls (+DMSO) were used to normalize 0%Activity (no inhibition).
Concentration-response curves were fitted to the signals arising from the resulting fluorescence. The concentration-effect curves were then classified based on curve quality (r2), response magnitude and degree of measured activity, and compounds were subsequently categorized based on their curve class.
Potency means the concentration at half of the fitted maximal effect; tags describe the fitted curve by direction and shape.

| SMILES | Potency | activity, negative = inhibition |
| --- | --- | --- |
| COc1cc(OC)c(OC)cc1/C=C/c1ccnc2ccccc12 | inconclusive: 35.5 µM [inhibitor, single point] | – |
| COc1cccc(NC(=O)Cn2c(=O)n(Cc3ccc4c(c3)OCO4)c(=O)c3oc4ccccc4c32)c1 | inconclusive: 35.5 µM [inhibitor, single point] | – |
| COc1ccc(-c2cc(NC(C)=O)c3ncc(-c4cc(OC)c(OC)c(OC)c4)n3c2)cn1 | inconclusive: 22.4 µM [inhibitor, single point] | – |
| CC(C)(C)c1ccc(C(=O)NCc2nnc(SCC(=O)N3CCCc4ccccc43)n2-c2ccccc2)cc1 | inconclusive: 3.55 µM [inhibitor, single point] | – |
| CCOc1ccc(NS(=O)(=O)c2ccc3c(c2)CCN3C(=O)C2CCC2)cc1 | inconclusive: 11.2 µM [inhibitor, single point] | – |
| Cc1ccc2c(c1)cc(CN(Cc1ccc3c(c1)OCO3)C(=O)c1ccccc1)c1nnnn12 | – | inactive: -1.81% |
| C=CCn1c(O)c(N=NC(=S)Nc2ccc(OC)cc2)c2ccccc21 | inconclusive: 3.55 µM [inhibitor, full curve] | – |
| CC(=O)Cn1ncc(Br)c(Br)c1=O | inconclusive: 35.5 µM [inhibitor, partial curve, poor fit] | – |
| COc1ccccc1C(=O)NC(CCSC)C(=O)N1CCC(Cc2ccccc2)CC1 (configuration not stated) | inconclusive: 15.8 µM [inhibitor, single point] | – |
| CCCc1cc(-c2nc(N)ncc2-c2csc(C)n2)c(O)cc1OC | – | inactive: 5.14% |
| CCOC(=O)Nc1cccc2ccccc12 | – | inactive: -18.9% |
| O=C(Cc1csc(Nc2nc(=S)[nH]c3ccccc23)n1)NCc1ccccc1Cl | – | inactive: 10.1% |
| CCOc1ccc(NC(=O)CN(C)C(=O)c2ccc(COc3ccccc3)o2)cc1OCC | – | inactive: 0% |
| C=CCC1(/C=N/O)CCOC(C)(C)C1 (configuration not stated) | – | inactive: -8.64% |
| COc1ccc(-n2nc3c(N4CCC(C(=O)N5CCC(C)CC5)CC4)nnc(C)c3c2C)cc1 | inconclusive: 11.2 µM [inhibitor, partial curve, poor fit] | – |
| CCOC(=O)C1CCCN(C(=O)c2ccc3c(c2)N(C)C(=O)/C(=C/c2ccccc2Cl)S3)C1 (configuration not stated) | inconclusive: 35.5 µM [inhibitor, single point] | – |

| SMILES | Potency | activity, negative = inhibition |
| --- | --- | --- |
| COc1ccc(Nc2ncc(C(=O)Nc3cccc(Cl)c3)c3ccccc23)cc1 | inconclusive: 12.6 µM [inhibitor, partial curve, poor fit] | – |
| Cc1cc(N2C3CCC2CC(O)(c2ccc(F)cc2)C3)nc(-c2ccccc2)n1 (configuration not stated) | inconclusive: 5.62 µM [inhibitor, full curve, poor fit] | – |
| CCOC(=O)N1CCC(N2Cc3cccc(C(=O)Nc4ccccc4OC)c3C2=O)CC1 | – | inactive: -1.07% |
| Cc1ccc(OCC(=O)NCC2(N3CCN(C)CC3)CCCCC2)cc1 | inconclusive: 6.31 µM [inhibitor, partial curve, poor fit] | – |
| O=C(c1cccc([N+](=O)[O-])c1)N1CCN(c2ncccn2)CC1 | – | inactive: -4.78% |
| Cc1ccccc1-c1cc(C(=O)NCc2ccc(OC(F)(F)F)cc2)nn1CC1CC(c2cccc([N+](=O)[O-])c2)=NO1 (configuration not stated) | inconclusive: 15.8 µM [inhibitor, single point] | – |
| O=c1c2sccc2nc(SCc2ccc([N+](=O)[O-])cc2)n1Cc1ccccn1 | inconclusive: 12.6 µM [inhibitor, partial curve] | – |
| Oc1ccccc1C=NCCN=Cc1ccccc1O | inconclusive: 20 µM [inhibitor, single point] | – |
| Cc1nc2c3cccnc3nn2c(C)c1CCC(=O)NCc1ccccc1 | – | inactive: 1.05% |
| CCC(=O)N1c2ccccc2CC1C(=O)NCCCN1CCN(c2ccc(OC)cc2)CC1 (configuration not stated) | – | inactive: 21.5% |
| COc1cc(N/N=C(\C)c2ccc(N)cc2)nc(-c2ccccc2)n1 | inconclusive: 35.5 µM [inhibitor, single point] | – |
| O=S(=O)(Nc1ccc(O)c(Sc2nc3ccccc3s2)c1)c1cc(Cl)ccc1Cl | inconclusive: 11.2 µM [inhibitor, partial curve, poor fit] | – |
| Cn1c(SCc2cccc(Br)c2)nc2ccccc2c1=O | inconclusive: 35.5 µM [inhibitor, single point] | – |
| CCN1CCN(CCCNC(=O)Cn2c(-c3cccs3)cc3cc(Cl)ccc32)CC1 | inconclusive: 25.1 µM [inhibitor, single point] | – |
| COc1c(CC=C(C)C)c(O)cc2oc(=O)c3c4ccc(O)cc4oc3c12 | inconclusive: 35.5 µM [inhibitor, single point] | – |
| CCn1ccc2c(OCC(=O)Nc3ccc(OC)cc3OC)cccc2c1=O | inconclusive: 35.5 µM [inhibitor, single point] | – |
